# Out of some 150,000 compounds screened, about 540 (0.36%) showed an effect of 50% or more. Some of the results follow.
# System: Plasmodium falciparum
# Experiment: Primary screen in NF54 nanoGlo assay, in single point, at 2uM, 72h; a lower Z score goes with more inhibition
# Type: functional, Erythrocyte
# Conditions: timepoint 72 hour
SMILES,% Inhibition,Z score
CC(=O)N[C@H]1C[C@@H](c2cccc(OCC(N)=O)c2)O[C@@H](C2CCCCC2)C1,7%,-1.28
Cn1ncc2c(=O)[nH]c(CN3CCC[C@H]3c3nccs3)nc21,-14%,2.67
COc1cc(NS(=O)(=O)c2ccc3c(c2)OC[C@@H](C(=O)N2CCCC2)O3)cc(OC)c1,-12%,2.04
N#CCN[C@@H](CC(N)=O)C1CCCCC1,-2%,0.33
CC(c1ccccc1)N1C(=O)C2C3CCC(C3)C2C1=O (centres undefined),-14%,1.77
COc1ccc(C(=O)NCCNC(C)=O)cc1OC,-3%,0.3
C#CCN1CCC[C@H](NC(=O)OC(C)(C)C)C1,1%,-0.1
Cc1c(CNC(=O)C2(N3CCCCC3)CCCCC2)cnn1C,8%,-1.06
Cc1cnn(CCC(=O)N2CCC[C@H](c3nc4c(C)cccc4[nH]3)C2)c1,-10%,1.83
Cn1cc(-c2nc([C@@H]3COCCN3Cc3cccc4cccnc34)no2)cn1,-7%,0.88
Cc1cc(C)nc(NCC(=O)Nc2nc(CC(C)C)n[nH]2)n1,-8%,1.1
Cc1cnc(C2CC2)n1C[C@H]1CCN(C(=O)c2ccc3ccccc3n2)C1,-10%,1.32
C[C@H]1CN(S(=O)(=O)c2ccc(NC(=O)c3ccccc3)cc2)c2ccccc2O1,6%,-0.79
CCC(C)C(C)Nc1ccc(C)c(C(N)=O)c1 (centres undefined),-10%,0.97
Cc1cc(N2CCCN(C(=O)COc3ccccc3)CC2)nc(N)n1,-1%,0.17
Cc1csc(C(C)CN2C(=O)N3CCC[C@@]3(C)C2=O)n1 (some centres undefined),-6%,0.53
Cn1nc(C2CC2)cc1C(=O)NC[C@H]1CCC2(CCOCC2)CO1,-4%,0.56
CC(=O)[C@@](C)(O)CN1CCc2c(ncn2-c2ccc(F)cc2)C1,-11%,1.72
O=C(NCCN1CCC[C@H](CO)C1)c1cccc(-c2ncccc2Cl)c1,-5%,0.49
O=C(Cn1ncc2c([nH]c3ccccc32)c1=O)Nc1ccc2c(c1)OCCO2,2%,-0.27
COc1ccc(S(=O)(=O)N2CCOCC2)cc1C(=O)N1CCC(CN2CC(C)OC(C)C2)CC1 (centres undefined),-6%,0.75

SMILES,% Inhibition,Z score
O=C(NCC[C@H]1CCOC1)c1cccc(OC(F)F)c1,1%,-0.14
CN[C@H]1CCCN(C(=O)c2cccc(-n3ccc(C(F)(F)F)n3)c2)C1,-9%,1.24
CCCc1cc(C(=O)OCCc2c(C)nn(C)c2C)[nH]n1,-8%,1.59
O=C(NC1CC1)N1CCS(=O)(=O)C[C@H]1c1ccccc1,-9%,1.81
CC(C)(CCCNc1ncc(Br)cn1)C1OCCO1,-23%,2.07
Cc1ccc(C(=O)N2CCC(N3C(=O)[C@H]4CCCN4C3=O)CC2)cc1,29%,-0.25
O=C(O)C1CC2CCCCC2N1Cc1ccc(F)c(F)c1 (centres undefined),-7%,0.69
O=C(COc1cccc(-n2cncn2)c1)N[C@H](c1ccccc1)C1CC1,-9%,1.04
O=C(NCc1ccc(N2CCCC2=O)cc1)C1CCCC1,-13%,1.78
CCOC(=O)NCCC(=O)N1CCOC2CCCC21 (centres undefined),10%,-1.31
COCCN(CCC(=O)NCc1ccccc1)c1nc(C2CC2)nc2cc(Cl)ccc12,-6%,0.67
CNC(=O)[C@@H](NCc1ccc2nc(C)ccc2c1)C(C)C,11%,-1.17
COc1ccc(C(=O)NC[C@H]2O[C@@H](CO)[C@@H](O)[C@H]2N(C)CCc2ccccc2)cc1,9%,-1.03
CC1CC(NC(Cc2ccccc2)CN2CCOCC2)CC(C)O1 (centres undefined),-5%,0.66
O=C(Nc1ccc2ccccc2c1)[C@@H]1CCCO1,-36%,4.28
CCC(CC)C(=O)Nc1cc(C)ccc1C,-3%,0.5
CNC(=O)NC[C@H]1COCCN1Cc1coc(C(C)(C)C)n1,-3%,0.59
CCc1nc(N)nc(N2CCC[C@H](O)CC2)c1C,-1%,0.11
COc1cccc(C2=CCN(C(=O)Cn3nc(C)c4cccnc43)C2)c1,-10%,1.49
CN(CCCc1cnn(C)c1)c1cc(C2CC2)ncn1,-1%,0.18
CC[C@H](C)N(CC(=O)N1CCN(c2ccc(-c3cccc(OC)c3)nn2)CC1)C(=O)c1cccs1,-9%,1.27

# — ChEMBL document CHEMBL4888484, “Replenishing the malaria drug discovery pipeline: Screening and hit evaluation of the MMV Hit Generation Library 1 (HGL1) against asexual blood stage Plasmodium falciparum ,using a nano luciferase reporter read-out” (2022)
